No constants are given. Whether binding was seen depends on the method and setting. Some binding calls cover weakened binding; strength is not graded here.
T1: human FEZ1 (221–392) (human) (UniProt Q99689)
T1 sequence: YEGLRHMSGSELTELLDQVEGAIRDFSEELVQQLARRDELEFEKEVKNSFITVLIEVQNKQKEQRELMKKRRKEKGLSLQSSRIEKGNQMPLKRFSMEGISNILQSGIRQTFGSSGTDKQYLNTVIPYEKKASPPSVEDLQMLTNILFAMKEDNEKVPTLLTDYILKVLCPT

Sequences of proteins named here, by UniProt entry; tags and fusion partners are left off. A change or cut given only in a name is not applied to a line headed by its entry. A line that says so, or that is headed by a name, gives the form on record, which may keep a tag or linker. Residues count along the entry.
stimulated by retinoic acid 13 (A8MT69-2, form named): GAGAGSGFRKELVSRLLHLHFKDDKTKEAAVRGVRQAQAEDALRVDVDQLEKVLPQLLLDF
UniProt Q75QN2, residues 508-816: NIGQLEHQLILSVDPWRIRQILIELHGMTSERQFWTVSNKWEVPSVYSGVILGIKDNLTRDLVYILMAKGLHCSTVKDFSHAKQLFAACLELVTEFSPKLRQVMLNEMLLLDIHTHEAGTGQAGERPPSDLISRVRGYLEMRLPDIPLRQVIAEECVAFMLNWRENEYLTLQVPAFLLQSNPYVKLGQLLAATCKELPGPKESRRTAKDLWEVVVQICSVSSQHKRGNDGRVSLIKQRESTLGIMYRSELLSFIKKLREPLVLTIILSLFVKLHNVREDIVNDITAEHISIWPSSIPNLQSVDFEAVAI
UniProt Q71F23, residues 243-263: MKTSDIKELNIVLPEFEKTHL

T2: human FEZ2 (207–353) (human) (UniProt Q9UHY8)
T2 sequence: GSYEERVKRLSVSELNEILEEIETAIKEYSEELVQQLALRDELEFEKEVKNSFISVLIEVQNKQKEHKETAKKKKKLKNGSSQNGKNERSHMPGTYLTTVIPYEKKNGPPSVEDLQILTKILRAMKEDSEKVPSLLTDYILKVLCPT


What was measured:
[1] = biological target: T1, human FEZ1 (221–392) (human); assay: two-hybrid; LexA-bait fusions (pBTM116) of FEZ2 (207-353), FEZ1 (221-392) or UNC-76 C-terminus against pACT2 prey clones in yeast L40; clones first isolated in library screens (human fetal brain and bone marrow cDNA) with the FEZ2 bait, then one representative clone of each prey tested one-to-one against the three baits; growth on minimal medium without Trp, Leu, His (10 mM 3-AT in the screen) and beta-galactosidase filter assay; in duplicate
[2] = biological target: T2, human FEZ2 (207–353) (human); assay: as above

Row | Molecule | binding [1] | binding [2]
1 | stimulated by retinoic acid 13 (from UniProt A8MT69-2 3-63) (domain or fragment) | binds | binds
2 | Translocation protein SEC62 (domain or fragment, UniProt Q99442 2-95) AERRRHKKRIQEVGEPSKEEKAVAKYLRFNCPTKSTNMMGHRVDYFIASKAVDCLLDSKWAKAKKGEEALFTTRESVVDYCNRLLKKQFFHRAL | no binding | binds
3 | TBC1 domain family, member 25 (domain or fragment, UniProt Q3MII6-1 498-677) GGRLLRQASLDGLQQLRDNMGSRRDPLVQLPHPAALISSKSLSEPLLNSPDPLLSSFSHPDSPSSSSPPSTQEASPTGDMAVGSPLMQEVGSPKDPGKSLPPVPPMGLPPPQEFGRGNPFMLFLCLAILLEHRDHIMRNGLDYNELAMHFDRLVRKHHLGRVLRRARALFADYLQSEVWD | binds | binds
4 | Platelet receptor Gi24 precursor (domain or fragment, UniProt Q9H7M9 215-311) VYKQRQAASNRRAQELVRMDSNIQGIENPGFEASPPAQGIPEAKVRHPLSYVAQRQPSESGRHLLSEPSTPLSPPGPGDVFFPSLDPVPDSPNFEVI | no binding | binds
5 | SAP30-like (protein, UniProt Q9HAJ7-1 1-183) MNGFSTEEDSREGPPAAPAAAAPGYGQSCCLIEDGERCVRPAGNASFSKRVQKSISQKKLKLDIDKSVRHLYICDFHKNFIQSVRNKRKRKTSDDGGDSPEHDTDIPEVDLFQLQVNTLRRYKRHYKLQTRPGFNKAQLAETVSRHFRNIPVNEKETLAYFIYMVKSNKSRLDQKSEGGKQLE | binds | binds

Other lines, results leading:

Row | binding [1] | binding [2] | Molecule
6 | binds | binds | integrator complex subunit 8 (from UniProt Q75QN2-1 508-816) (domain or fragment)
7 | binds | binds | MLF1 interacting protein (from UniProt Q71F23-1 243-263) (domain or fragment)
8 | binds | binds | amplified in osteosarcoma isoform 1 precursor (domain or fragment, UniProt Q13438-1 389-635) VDDAAEVPQREPEKERGDPERQREMEEEEDEDEDEDEDEDERQLLGEFEKELEGILLPSDRDRLRSEVKAGMERELENIIQETEKELDPDGLKKESERDRAMLALTSTLNKLIKRLEEKQSPELVKKHKKKRVVPKKPPPSPQPTEEDPEHRVRVRVTKLRLGGPNQDLTVLEMKRENPQLKQIEGLVKELLEREGLTAAGKIEIKIVRPWAEGTEEGARWLTDEDTRNLKEIFFNILVPGAEEAQK
9 | binds | binds | DR1-associated protein 1 (domain or fragment, UniProt Q14919-1 1-133) MPSKKKKYNARFPPARIKKIMQTDEEIGKVAAAVPVIISRALELFLESLLKKACQVTQSRNAKTMTTSHLKQCIELEQQFDFLKDLVASVPDMQGDGEDNHMDGDKGARRGRKPGSGGRKNGGMGTKSKDKKL
10 | no binding | binds | Pigment epithelium-derived factor precursor (PEDF) (domain or fragment, UniProt P36955 16-267) HSSCQNPASPPEEGSPDPDSTGALVEEEDPFFKVPVNKLAAAVSNFGYDLYRVRSSTSPTTNVLLSPLSVATALSALSLGAEQRTESIIHRALYYDLISSPDIHGTYKELLDTVTAPQKNLKSASRIVFEKKLRIKSSFVAPLEKSYGTRPRVLTGNPRLDLQEINNWVQAQMKGKLARSTKEIPDEISILLLGVAHFKGQWVTKFDSRKTSLEDFYLDEERTVRVPMMSDPKAVLRYGLDSDLSCKIAQLP
11 | binds | binds | hypothetical protein LOC119392 isoform a (domain or fragment, UniProt Q86XK3-1 6-245) KNQDFTFKMESPSDSAVVLPSTPQASANPSSPYTNSSRKQPMSATLRERLRKTRFSFNSSYNVVKRLKVESEENDQTFSEKPASSTEENCLEFQESFKHIDSEFEENTNLKNTLKNLNVCESQSLDSGSCSALQNEFVSEKLPKQRLNAEKAKLVKQVQEKEDLLRRLKLVKMYRSKNDLSQLQLLIKKWRSCSQLLLYELQSAVSEENKKLSLTQLIDHYGLDDKLLHYNRSEEEFIDV
12 | no binding | binds | zygin 1 isoform 2 (domain or fragment, UniProt Q99689-2 1-89) MEAPLVSLDEEFEDLRPSCSEDPEEKPQCFYGSSPHHLEDPSLSELENFSSEIISFKSMEDLVNEFDEKLNVCFRNYNAKTENLAPVKN

Reference: PMC3050892
